# Measurements: publication PMC6919601, “Identification of Plasmodium dipeptidyl aminopeptidase allosteric inhibitors by high throughput screening” (PLoS ONE, 2019)
# Out of some 110,000 compounds screened, about 230 (0.21%) showed an effect of 50% or more. This is one part of the list.
# Target: DPAP1 (Plasmodium falciparum, UniProt Q8IIJ9)
# Test: primary screen, percent inhibition; read by cleavage of a fluorogenic dipeptide substrate; higher = more effect of the substance
# Set-up: species or system P. falciparum D10 trophozoite lysates; single well
# 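Note: 30 min substrate incubation versus DMSO and 10 µM JCP410 controls.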
# Sequence of DPAP1 (Q8IIJ9 whole entry, looked up): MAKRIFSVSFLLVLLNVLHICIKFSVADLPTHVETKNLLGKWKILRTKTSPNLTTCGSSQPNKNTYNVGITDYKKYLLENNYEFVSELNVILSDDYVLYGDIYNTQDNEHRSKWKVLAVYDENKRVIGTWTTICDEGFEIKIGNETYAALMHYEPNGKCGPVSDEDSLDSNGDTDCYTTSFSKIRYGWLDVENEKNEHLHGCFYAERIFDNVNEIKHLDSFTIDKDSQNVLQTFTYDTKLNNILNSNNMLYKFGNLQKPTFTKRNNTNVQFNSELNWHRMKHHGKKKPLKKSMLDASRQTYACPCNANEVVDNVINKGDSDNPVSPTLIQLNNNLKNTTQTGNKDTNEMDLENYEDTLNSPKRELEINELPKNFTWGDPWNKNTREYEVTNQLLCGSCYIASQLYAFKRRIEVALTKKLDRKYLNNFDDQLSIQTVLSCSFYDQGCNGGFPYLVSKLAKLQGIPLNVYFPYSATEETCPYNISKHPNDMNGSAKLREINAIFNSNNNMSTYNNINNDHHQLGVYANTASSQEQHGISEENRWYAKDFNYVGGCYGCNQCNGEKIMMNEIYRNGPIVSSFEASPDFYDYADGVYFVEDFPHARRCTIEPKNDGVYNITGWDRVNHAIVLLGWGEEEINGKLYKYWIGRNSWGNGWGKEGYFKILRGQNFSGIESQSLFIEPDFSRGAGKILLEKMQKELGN
row,Compound,% Inhibition @ 10 uM [%]
1,Cc1ccn2c(=O)c(C(=O)NCCC(c3ccccc3)c3ccccc3)cnc2c1,-1.66
2,O=C(Nc1cnn(Cc2ccc(F)cc2)c1)C1c2ccccc2Oc2ccccc21,3.94
3,NC(=O)C1CCCN(Cc2ccco2)C1 (stereo not drawn),1.88
4,Cc1ccnc(NC(=O)c2ccc(C(C)(C)C)cc2)c1,1.34
5,CC1=C(C(=O)NC2CCCCC2C)C2(CCC(C)CC2)OC1=O (stereo not drawn),-1.89
6,COC(=O)c1c(-c2ccc(Br)cc2)csc1N,4.98
7,Cn1c(C(=O)NCCOc2ccccc2Cl)cc(=O)n(C)c1=O,1.11
8,O=C1c2ccccc2-c2nc3ncnn3c(-c3ccccc3Cl)c21,1.01
9,COC(=O)c1cc(=O)n(Cc2ccccc2)/c(=N/Cc2ccccc2)s1,-7.13
10,Cc1cc(C)c2c(=O)n(CC(=O)NC(C)c3ccccc3)sc2n1 (stereo not drawn),3.59
11,O=C(NCC1CCCO1)NC1(C(F)(F)F)Oc2ccc(Cl)cc2O1 (stereo not drawn),-7.83
12,COc1ccccc1C1C(C#N)=C(N)OC2=C1C(=O)CC(C)(C)C2 (stereo not drawn),-1.59
13,Cc1ccc2[nH]c(CCc3nc4cc(C)ccc4[nH]3)nc2c1,-6.71
14,Nc1nonc1-c1nnnn1CC(=O)N1CCOCC1,14.6
15,CCOP(=O)(c1ccccc1)C(O)c1ccc(F)cc1 (stereo not drawn),0.408
16,O=C(c1ccccc1)c1cc(F)c(N2CCCCC2)cc1Cl,2.65
17,O=C(Cc1cccc2ccccc12)Nc1ccccc1C(=O)Nc1ccccc1,4.25
18,COc1cccc(N(CC(=O)NCC(C)C)S(=O)(=O)c2ccc(C)cc2)c1,-12
19,COc1ccc(C2=N/C(=C\C(C)=C\c3ccccc3)C(=O)O2)cc1OC,0.0932
20,Nc1nc(N)nc(-c2ccc(Br)cc2)n1,3
21,CC(=O)c1ccc(NC(=O)CSC(C)C)cc1,-4.91
22,CCC(C)NC(=O)Cn1c(=O)c2cccn2c2cccnc21 (stereo not drawn),-6.96
23,Cc1ccc2ncnc(N(CC(C)C)CC(C)C)c2c1,-3.06
24,COCCN1C(=O)c2oc3ccccc3c(=O)c2C1c1ccc(C(=O)OC)cc1 (stereo not drawn),-2.91
25,Cc1noc2ncnc(NCCC3=CCCCC3)c12,-2.34

row,Compound,% Inhibition @ 10 uM [%]
1,CCOC(=O)N1CCN(C(=O)C2CC(c3cc(OC)ccc3OC)=NO2)CC1 (stereo not drawn),4.41
2,COc1ccc(OC)c2c(C)cc(N[C@H]3CC[C@H](O)CC3)nc12,-0.13
3,COc1ccc(N(CC(=O)Nc2cccc(C)c2)S(=O)(=O)c2ccc(NC(C)=O)cc2)cc1,-6.77
4,O=C(NC1CCCC1)c1ccc(CNc2c(N3CCCCC3)c(=O)c2=O)cc1,-0.0309
5,CC(C)C(=O)NCCc1nc2ccccc2n1CCCOc1ccc(Cl)cc1,3.24
6,O=C(CCSc1nc2ccccc2n1S(=O)(=O)c1ccccc1)N1CCCCC1,-2.19
7,COC(=O)c1sc(N2C(=O)c3oc4ccccc4c(=O)c3C2c2ccc(C(C)C)cc2)nc1C (stereo not drawn),-0.828
8,COc1cc(C(=O)NCc2ccc3c(c2)OCO3)cc(OC)c1OC,-9.26
9,COc1cc(C2Nc3ccccc3N=C3CC(C)(C)CC(O)=C32)ccc1O (stereo not drawn),-2.07
10,CCc1ccc(-c2cc(C(=O)N(CC)Cc3ccccc3)n[nH]2)cc1,-3.31
11,COc1ccc(CNC(=O)CNC2=NC(=O)C(c3ccccc3)(c3ccccc3)N2)cc1,0.324
12,c1cc(CNC2CCCCC2)n(-c2nnc(N3CCCC3)s2)c1,-9.4
13,CCCC(C)C1C(C#N)=C(N)OC2=C1C(=O)CCC2 (stereo not drawn),0.777
14,C=CCc1cc(/C=C2\SC(=O)N(C)C2=O)cc(OCC)c1OC,5.37
15,O=C(Nc1ccc(N2CCN(C(=O)c3cccs3)CC2)cc1)c1ccccc1Cl,2.84
16,CCc1ccc(CNCCCCO)cc1,6.69
17,COc1ccc(-c2ccccc2)cc1N1C(=O)c2ccc(F)cc2C1=O,1.35
18,CCOc1ccc(OCc2ccc(C(=O)N3N=C(C(F)F)CC3(O)C(F)F)cc2)cc1 (stereo not drawn),0.389
19,CC1(C)CN=C(N2CCNCC2)S1,1.44
20,CC(C)CCNC(=O)c1cc(O)nc2ccc(S(=O)(=O)N3CCOCC3)cc12,3.27
21,CC(C)C[C@H](NC(=O)c1ccccc1OC(F)F)C(=O)NCC#N,3.19
22,COCc1ccc2c(c1)c1c3n2CCN(Cc2ccccc2)C3CCC1 (stereo not drawn),2.98
23,CCSc1cnn(C)c(=O)c1SCC,3.95
24,O=C(NCCc1ccc(Cl)cc1)C1CCN(S(=O)(=O)N2CCC3(CC2)OCCO3)CC1,0.514
25,CCc1nnc(NC(=O)c2nc(SCc3ccc(C)cc3)ncc2Cl)s1,0.758

row,Compound,% Inhibition @ 10 uM [%]
1,O=c1c(Sc2ccccc2)c(O)c2ccccc2n1-c1ccccc1,2.37
2,CCC12CN(C(=O)c3ccc(OC)cc3)CC(CC)(CN(C(=O)c3ccc(OC)cc3)C1)C2=O,0.275
3,Cc1ccc(CSCc2nc3ccccc3[nH]2)cc1,1.64
4,Cc1cc(-c2ccc(C)c(S(=O)(=O)NC(C)Cc3ccco3)c2)on1 (stereo not drawn),-3.61
5,O=C(O)c1ccc(C(=O)c2ccc(C(=O)O)c(C(=O)O)c2)cc1,-6.71
6,COCCNc1nc2c(C)cccn2c(=O)c1/C=C1\SC(=S)NC1=O,1.52
7,CCOC(=O)c1c(C)[nH]c(C)c1S(=O)(=O)NCC(=O)Nc1nc2ccc(OC)cc2s1,-4.95
8,CCN1CCN(C(=O)Cn2ncc3c(=O)oc4ccc(C)cc4c32)CC1,4.74
9,CC(C)(C)c1nc(CN2CCOCC2)cc(CN2CCOCC2)c1O,0.716
10,O=c1nc(-c2ccc(Cl)cc2)oc2ccccc12,4.26
11,CN1C(=O)C(=Cc2ccc(OCc3ccccc3)cc2)C(=O)N(C)C1=O,17
12,CCN(Cc1ccccc1)S(=O)(=O)c1ccc(F)cc1,3.33
13,CC1=C(C(=O)OC2CCCC2)C(c2ccccc2)C2=C(O)CC(C)(C)CC2=N1 (stereo not drawn),-3.6
14,COc1ccc(CCNC(=O)Nc2cn(CC(C)C)c(=O)c3ccccc23)c(OC)c1,0.358
15,O=C(NC1(C(F)(F)F)C(=O)Nc2c1c(=O)[nH]c(=O)n2CCc1ccccc1)c1cccnc1 (stereo not drawn),0.413
16,COc1ccc(C2(C(=O)N3CCCC3)CCCC2)cc1OC,1.93
17,CCC1CCC(C(=O)NC(CCSC)C(=O)NCCc2ccc(S(N)(=O)=O)cc2)CC1 (stereo not drawn),1.23
18,CCOc1ccc(N(C(C)=O)C2SC(=O)N(c3cccc(C)c3)C2=O)cc1 (stereo not drawn),3.25
19,O=C(COc1ccc(Cl)cc1Cl)Nc1noc2ccccc12,-1.11
20,CSc1nc2c(c(-c3ccc(Cl)cc3)c1C#N)C(=O)CC(C)(C)C2,-1.98
21,CCN(CC)C(=O)Cn1c(=O)n(CCC(=O)NCCc2ccc(Cl)cc2)c(=O)c2sccc21,-1.21
22,COC(=O)c1cc(S(=O)(=O)N(C)Cc2cnn(-c3ccccc3)c2)c[nH]1,-1.55
23,COc1cc(C(=O)N(Cc2ccccc2F)C2CCS(=O)(=O)C2)cc(OC)c1OC (stereo not drawn),-1.35
24,COc1ccc(CCNCc2cc(OC)c3c(c2)OCO3)cc1OC,2.22
25,O=C(CS(=O)(=O)c1ccc(C(F)(F)F)cc1Cl)Nc1ccc(F)cc1,-1.28

row,Compound,% Inhibition @ 10 uM [%]
1,O=C(O)c1ccc2[nH]c(CCc3ccccc3)nc2c1,-6.94
2,Cc1cccc(N2CCN(c3ccc(NC(=O)CCC(=O)O)cc3)CC2)c1,3.49
3,Cn1c(SCC(=O)O)c(C=O)c2ccccc21,10.3
4,COc1ccc(-n2c(S)nnc2Cn2ncc3ccccc3c2=O)cc1,13.5
5,CCCCn1c(CN2CCCCC2CC)nc2c1c(=O)n(C)c(=O)n2C (stereo not drawn),-4.14
6,Cc1ccc(C(=O)Nc2nnc(S(=O)(=O)N(C)Cc3ccccc3)s2)cc1,1.68
7,COc1ccc(/C=C/C(=O)NC(=S)N2CCOCC2)cc1,-4.18
8,COCc1cc(C)nc2sc3c(c12)NC1(CCCCC1)NC3=O,2.34
9,COc1ccc(-n2c(CN3CCc4ccccc4C3)nc3ccccc3c2=O)cc1,0.245
10,COc1ccc2c(Cl)c(C(=O)Nc3ccc(S(N)(=O)=O)cc3)sc2c1,-0.99
11,Cc1ccc(Cn2c(C)c3cnn(CC(=O)NCCN4CCCCCC4)c(=O)c3c2C)cc1,4.4
12,COc1cc(C2C3=C(O)CCCC3=NC3=C2C(=O)CCC3)ccc1OCc1ccc(C(=O)O)cc1 (stereo not drawn),-4.67
13,COc1ccc(N(CC(=O)N2CCCCC2)S(=O)(=O)c2ccc(C)cc2)c(OC)c1,0.0265
14,COc1ccc(Br)cc1C1=N/C(=C\c2c(F)cccc2Cl)C(=O)O1,-4.92
15,CCOc1ccccc1CNc1ncnc2onc(-c3ccc(Cl)cc3)c12,-0.495
16,CCOC(=O)c1c(N)n(-c2ccccc2O)c2nc3ccccc3nc12,-4.01
17,O=C(O)/C=C1\OC(=O)c2ccccc21,1.63
18,N=C1/C(=C/c2ccc(Br)o2)C(=O)N=C2SC=C(c3ccccc3)N12,-0.85
19,Clc1ccc(N2CC(c3ccc(Cl)cc3Cl)C(c3cccs3)=N2)cc1 (stereo not drawn),-4.91
20,COc1ccc(N2CCN(C(=O)COc3ccc(Br)cc3Cl)CC2)cc1,-10.4
21,O=C(O)c1ccc(NS(=O)(=O)c2ccc(Cl)cc2)cc1,-0.0619
22,C=CCOCCn1c2ccccc2c2ccccc21,-2.02
23,COc1ccc(Sc2nn3nnnc3c3ccccc23)cc1,3.59
24,COc1ccccc1C(=O)Nc1nnc(S(=O)(=O)N2CCOCC2)s1,3.3
